# Experimental data as given in PubChem BioAssay AID1347120 (National Center for Advancing Translational Sciences (NCATS), 2019).
# The campaign covered roughly 390,000 compounds. About 930 (0.24%) were called active. The inconclusive results got no clear call from the source; some entries with a clear call stand among them for comparison. Calls come from the whole dose curve; as a rule, active = well fitted activation curve with a large enough effect; inconclusive = small, poorly fitted or top-dose-only effect; inactive = no such curve, though single readings can be large or run the other way. Potencies of inconclusive entries are doubtful fits and often do not repeat.
# Assay: qHTS for Suppressors of FUS Proteinopathy: Primary screen using FUS-linked yeast assay; note: nearly all actives have a fitted effect of over 55% in size;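 for growth rescue (activation): plate controls were DMSO vehicle for no effect and reference control for full effect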
# Details: S. cerevisiae FUS-expressing, OD600, 24 h; Potency: growth rescue; growth rescue (activation): at 76.6 µM (top of the series)
# Summary of the method: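 S. cerevisiae expressing FUS from galactose induction served as the toxicity model. Growth after 24hr at 30C, read as absorbance at 600 nm, indicates suppression of toxicity; compounds dosed at several concentrations.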
# Potency is the fitted concentration of half-maximal effect; tags give direction and shape of the fitted curve.
SMILES,Potency,growth rescue (activation)
CCCC(=O)N1CCc2cc(OC)c(OC)cc2C1COc1ccc(C(=O)OC)cc1 (centres undefined),"inconclusive: 25.1 µM [activator, partial curve, poor fit]",
COC(=O)[C@@]12C[C@@H](CC(=O)NCc3ccc(OC)c(OC)c3)C(=O)N(Cc3ccc4c(c3)OCO4)C1=CCC(C)(C)C2,active: 12.6 µM,
O=C(NN1C(=O)NC2(CCCCC2)C1=O)c1ccc(-c2ccc([N+](=O)[O-])cc2)o1,"inconclusive: 39.8 µM [activator, single point]",
CCCn1c(C)cc(-c2csc(N)n2)c1C,,inactive: 20.7%
CCN(CC)C(=O)Cn1c(=O)n(CC2CCC(C(=O)NC)CC2)c(=O)c2sccc21 (centres undefined),,inactive: -34.9%
O=C(NCCn1cc(SCc2ccc(Br)cc2)c2ccccc21)c1cccs1,"inconclusive: 14.1 µM [activator, partial curve, poor fit]",
Cn1c(=O)c2c(-c3ccc(Br)cc3)n(Cc3ccc(F)cc3)cc2n(C)c1=O,,inactive: 24.6%
O=C1C=C(c2ccc3cc[nH]c3c2)C[C@@H](c2ccc3c(c2)OCO3)C1,"inconclusive: 28.2 µM [activator, single point]",
COc1cc(/C=N/Nc2nc(Nc3ccccc3)nc(N3CCCCC3)n2)ccc1OCC(=O)O,"inconclusive: 31.6 µM [activator, partial curve, poor fit]",
COc1ccc(N(C)S(=O)(=O)c2cccc(C(=O)N3CCN(Cc4ccc5c(c4)OCO5)CC3)c2)cc1,,inactive: 9.72%
COc1ccc(C)cc1-n1cnc2cc(C(=O)NC3CCCCCC3)ccc21,"inconclusive: 39.8 µM [activator, single point]",
CCc1nc(-c2cc(S(=O)(=O)N3CCN(c4ccccc4)CC3)ccc2OC)no1,,inactive: -15.1%
CCCc1nnc(NC(=O)CCC(=O)NC2CCCc3ccccc32)s1 (centres undefined),"inconclusive: 11.2 µM [activator, single point]",
Cc1ccc2c(c1)C1(C(=O)N2)N2CCCC2C(C(=O)c2ccc3ccccc3c2)C12C(=O)Nc1ccccc12 (centres undefined),"inconclusive: 35.5 µM [activator, partial curve, poor fit]",
CCN1CCCCC(NC(=O)c2ccccc2OC)C1=O (centres undefined),,inactive: -5.74%
O=C1c2ccccc2C(c2nnnn2-c2ccc3c(c2)OCCO3)N1CCOc1ccccc1 (centres undefined),"inconclusive: 39.8 µM [activator, single point]",
COc1ccccc1/C=C/C(=O)OCC(=O)c1cc(C)n(C)c1C,"inconclusive: 28.2 µM [activator, single point]",
CC(OC(=O)Cn1ccccc1=O)C(=O)Nc1cc(Cl)cc(Cl)c1 (centres undefined),"inconclusive: 11.2 µM [activator, single point]",
Cc1ccc(-c2nc3c4ccccc4n(CC(=O)NCc4ccc(F)cc4)c(=O)n3n2)cc1,,inactive: -9.88%
COc1ccc(NS(=O)(=O)c2ccc(-c3n[nH]c(=S)n3Cc3ccccc3)cc2)cc1,"inconclusive: 28.2 µM [activator, single point]",
COc1ccc(C)cc1NC(=O)c1cnc2ccc(C)cn2c1=O,,inactive: -5.99%
COc1cc(C(=O)Nc2ccc(N3CCN(C(=O)c4ccc(C)cc4)CC3)cc2)cc(OC)c1OC,"inconclusive: 15.8 µM [activator, partial curve, poor fit]",

SMILES,Potency,growth rescue (activation)
CCOC(=O)[C@]12CCCC=C1N(CCCOC)C(=O)[C@@H]2CC(=O)NCc1ccc(OC)c(OC)c1,"inconclusive: 50.1 µM [activator, single point]",
c1ccc(CNC2CCC23CCC(c2ccccc2)CC3)cc1 (centres undefined),,inactive: -15.8%
Cc1ccc(C)c(NC(=O)CN(C)C(=O)c2ccc(-c3ccc(Cl)cc3)o2)c1,"inconclusive: 50.1 µM [activator, single point]",
Cc1cc(NC(=O)CSc2nc3ccsc3c(=O)n2CCCCC(=O)O)no1,"inconclusive: 50.1 µM [activator, single point]",
O=C(C=C(O)c1ccc(Cl)cc1)C(=O)NNC(=O)C(O)(c1ccccc1)c1ccccc1,"inconclusive: 35.5 µM [activator, single point]",
O=S(=O)(c1ccc2nc(Nc3ccccc3)ccc2c1)N1CCCCC1,"inconclusive: 14.1 µM [activator, partial curve, poor fit]",
CC(C)(C)OC(=O)CNC(=O)c1[nH]cnc1C(=O)NC1CCN(C(=O)OC(C)(C)C)CC1,"inconclusive: 15.8 µM [activator, partial curve]",
CN(C)c1cccc(C(=O)Nc2nc3ccc(S(=O)(=O)N4CCCC4)cc3s2)c1,"inconclusive: 39.8 µM [activator, partial curve, poor fit]",
C=CC[C@@H](CC(=O)N(CCO)Cc1ccccc1)C(=O)NC[C@H](OC(=O)[C@@H](CC=C)CC(=O)OC(C)(C)C)c1ccccc1,"inconclusive: 15.8 µM [activator, partial curve, poor fit]",
CCN(C(=O)[C@@H](C1CC1)[C@@H](O)c1ccc(Cl)cc1)c1ccccc1,,inactive: -1.18%
Cc1cc(NS(=O)(=O)c2ccc(NC(=O)C(CC(C)C)N3C(=O)c4ccccc4C3=O)cc2)nc(C)n1 (centres undefined),"inconclusive: 56.2 µM [activator, partial curve, poor fit]",
O=S(=O)(c1ccc2c(c1)OCCO2)N1CCC(c2nc3ccc(Cl)cc3[nH]2)CC1,"inconclusive: 56.2 µM [activator, partial curve, poor fit]",
CCCC1CCC2(CC1)CCC2OC(=S)Nc1ccccc1OC (centres undefined),,inactive: -9.18%
O=C(CCNc1ccc(F)c(Cl)c1)c1ccco1,,inactive: 44.9%
CC(=O)C1CN(S(=O)(=O)c2ccc(C)cc2)C(c2ccccc2)CC1C (centres undefined),"inconclusive: 39.8 µM [activator, partial curve, poor fit]",
Cc1ccc2c(nc3s/c(=C/c4cccs4)c(=O)n32)c1C,"inconclusive: 56.2 µM [activator, partial curve, poor fit]",
CCN1CCCC1CNC(=O)c1cc2c(-c3cccc(OC)c3)nn(C)c2s1 (centres undefined),,inactive: 18.7%
O=C(Nc1ncc([N+](=O)[O-])s1)c1ccccc1Br,"inconclusive: 0.891 µM [activator, full curve, poor fit]",
NS(=O)(=O)c1ccc(NCc2cc(Cl)ccc2OCc2ccc(F)cc2)cc1,"inconclusive: 50.1 µM [activator, partial curve, poor fit]",
COP(=O)(OC)C(Nc1ccc(C)cc1)c1ccc([N+](=O)[O-])cc1 (centres undefined),,inactive: 4.82%
Cc1cc(S(=O)(=O)Nc2nc(CN3CCOCC3)nc3sc4c(c23)CCC4)ccc1F,"inconclusive: 50.1 µM [activator, single point]",
c1ccc2c(c1)N=C(N1CCN(Cc3ccc4c(c3)OCO4)CC1)c1ccccc1S2,,inactive: 21.7%

SMILES,Potency,growth rescue (activation)
CCOc1ccc(S(=O)(=O)/N=C(/Nc2ccc(C(C)=O)cc2)c2ccccc2)cc1,"inconclusive: 31.6 µM [activator, single point]",
Cc1ccc(NC(=O)c2nc[nH]c2C(=O)NCCCCCNC(=O)OC(C)(C)C)cc1,"inconclusive: 28.2 µM [activator, single point]",
CC1CCc2[nH]c3ccc(C(=O)N(C)CC(=O)Nc4ccccc4Br)cc3c2C1 (centres undefined),"inconclusive: 35.5 µM [activator, single point]",
CN(CCc1ccccc1)C(=O)c1ccc(NC(=O)Cc2cccc(NC(=O)C3CCN(C(=O)C4CCCC4)CC3)c2)cc1,"inconclusive: 50.1 µM [activator, single point]",
Cc1cccc(N2CCN(C(=O)c3oc(=O)c4ccccc4c3-c3ccccc3)CC2C)c1 (centres undefined),"inconclusive: 28.2 µM [activator, partial curve, poor fit]",
CCOc1ccc2nc(N(Cc3cccnc3)C(=O)C3CCCCC3)sc2c1,,inactive: 0.966%
COc1ccc(Oc2cnn(-c3ccccc3)c(=O)c2Br)cc1,,inactive: -4.69%
COc1ccccc1-c1cc(C(=O)N/N=C/c2cccs2)c2ccccc2n1,"inconclusive: 15.8 µM [activator, partial curve]",
Cc1cc(C(=O)NCc2ccc(F)cc2)c2ccccc2n1,"inconclusive: 28.2 µM [activator, partial curve, poor fit]",
CC(C)=CCC/C(C)=C/C[C@]12C[C@H](C(=O)O)N(C(=O)OC(C)(C)C)[C@@H]1N(C(=O)OC(C)(C)C)c1ccccc12,"inconclusive: 15.8 µM [activator, partial curve, poor fit]",
c1cncc(CNc2ncnc3sccc23)c1,,inactive: -26%
COc1ccccc1-c1nc(C#N)c(N2CCN(c3ccccc3)CC2)o1,,inactive: 6%
CCOc1ccc(-n2c(SCC(=O)c3ccccc3Cl)nnc2-c2ccncc2)cc1,active: 17.8 µM,
O=C(O)Cc1ccccc1C(=O)O,,inactive: 1.37%
CCN(CC)c1ccc(C=Nn2c(-c3ccc(F)cc3)n[nH]c2=S)c(O)c1,"inconclusive: 14.1 µM [activator, partial curve]",
O=C(C1CCC1)n1ccc2ccc(-c3ccc4ccn(Cc5ccccc5)c4c3)cc21,"inconclusive: 50.1 µM [activator, single point]",
Oc1ccc(N=Nc2ccccc2)o1,,inactive: -10.6%
COc1ccc(NS(=O)(=O)c2cc(NC(=O)CCc3ccc(OC)c(OC)c3)ccc2N2CCOCC2)cc1,"inconclusive: 25.1 µM [activator, single point]",
Cn1ccc2c(-c3ccc(CO)cc3)cc3c(c21)C1CCC3C1 (centres undefined),"inconclusive: 50.1 µM [activator, single point]",
O=C(CSCc1ccc(F)cc1)N1CCN(c2ccccc2)CC1,"inconclusive: 50.1 µM [activator, single point]",
